Out of some 310,000 compounds screened, about 18,000 (5.8%) were called active. The shares of active, inactive and inconclusive entries below differ from those in the screen. The call rests on the fitted dose curve; in most records, active means well fitted inhibition curve with a large enough effect; inconclusive means small, poorly fitted or top-dose-only effect, or another doubt; inactive means no such curve, though single readings can be large or run the other way. No potency is given beside an inconclusive call; the fits are too rough.
Test: Primary qHTS for delayed death inhibitors of the malarial parasite plastid, 48 hour incubation
Conditions: P. falciparum luciferase growth in erythrocytes; series mostly up to 28.7 µM
In short: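 Luciferase-expressing parasites in RBCs, 2% Hct / 0.1% parasitemia final; RPMI 1640 + 0.5% Albumax; 37 C, 5% CO2, one generation; luminescence read-out, lower signal = inhibition.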
On the % scale 0 is the no-effect control and ±100 the full control effect; potency means the concentration at half of the fitted maximal effect; tags describe the fitted curve by direction and shape.

| Compound | Potency | activity change, negative = inhibition |
| --- | --- | --- |
| CN1C(=O)N(CC(=O)N2CCN(S(=O)(=O)/C=C/c3ccccc3)CC2)C(=O)C12CCCCC2 | inconclusive [inhibitor, single point] | – |
| CCCCOc1ccccc1NC(=O)CC1Nc2ccccc2NC1=O (centres undefined) | active: 1.65 µM | – |
| COc1cc(NC(=O)Cn2ncc(Cl)c(Cl)c2=O)c(C)cc1[N+](=O)[O-] | inactive | – |
| O=C(CSc1nc2nccnc2c(=O)n1Cc1cccs1)Nc1ccccc1F | active: 10.4 µM | – |
| COCCN(C(=O)c1ccc(-c2ccc(Cl)cc2)o1)c1c(N)n(Cc2ccccc2)c(=O)[nH]c1=O | inconclusive [inhibitor, single point] | – |
| CCCCn1c(N)c(N(CC(C)C)C(=O)c2cccc(S(=O)(=O)N3CCN(C)CC3)c2)c(=O)[nH]c1=O | inactive | – |
| COc1ccc(/C=N/c2oc(-c3ccccc3)cc2C#N)cc1 | inactive | – |
| CCN1CCN(CCCNC(=O)c2ccc3c(c2)NC(=O)/C(=C\c2cccc(C)c2)S3)CC1 | inconclusive [inhibitor, partial curve] | – |
| COC(=O)c1cc(S(=O)(=O)N2CCN(c3ccc(F)cc3)CC2)c[nH]1 | inconclusive [inhibitor, single point] | – |
| CCCCN1C(=O)/C(=C2/Sc3ccccc3N2C)S/C1=N\c1ncn[nH]1 | active: 7.38 µM | – |
| COc1nc(-c2ccc(C)cc2)ccc1-c1noc(-c2cccnc2)n1 | inactive | – |
| O=C(Nc1ccc(S(=O)(=O)Nc2ncccn2)cc1)C1=COCCO1 | inactive | – |
| OC(CN(c1ccccc1)c1ccccc1)Cn1cnc2ccccc21 (centres undefined) | active: 11.7 µM | – |
| CCOC(=O)c1c(C)[nH]c(O)c1C=Nc1ccc(Cl)cc1 | inactive | – |
| CN(C)CCCN(Cc1cc2cc3c(cc2[nH]c1=O)OCO3)C(=S)Nc1cccc(Cl)c1 | inconclusive [inhibitor, single point] | – |
| Cc1ccc2c(C)c(C(=O)N(C)Cc3ccncn3)oc2c1C | inactive | – |
| O=C(c1ccco1)N1CCN(C(=O)c2cc(-c3ccccc3)nc3ccccc23)CC1 | inactive | – |
| O=C(CN(c1ccccc1)S(=O)(=O)c1ccc(F)cc1)NCc1cccs1 | inconclusive [inhibitor, partial curve, poor fit] | – |
| CC(=O)c1ccc(Oc2cc(C)nc(NCc3ccccc3)n2)cc1 | inconclusive [inhibitor, partial curve] | – |
| CCN(CC)CCCC1(CN)OCCc2ccccc21 (centres undefined) | inconclusive [inhibitor, single point] | – |
| CC1=CC(C)(C)[N+](C)(C)c2ccccc21 | inconclusive [inhibitor, partial curve] | – |
| Nc1nnc(SCC(=O)Nc2ccc3nc(SCC(=O)Nc4ccccc4)sc3c2)s1 | inconclusive [inhibitor, single point] | – |
| C=C(C)CNc1cc(S(=O)(=O)N2CCOCC2)ccc1Oc1ccccc1 | inconclusive [inhibitor, single point] | – |

| Compound | Potency | activity change, negative = inhibition |
| --- | --- | --- |
| CC(=O)c1ccc(NC(=O)C(C)n2nc(-c3ccccc3)c3cc(Cl)ccc32)cc1 (centres undefined) | inconclusive [inhibitor, single point] | – |
| CCCNC(=O)c1ccc(N2CCC3(CC2)CC(c2cccc(Br)c2)=NO3)c(NC(=O)c2c(Cl)cccc2Cl)c1 | inconclusive [inhibitor, partial curve, poor fit] | – |
| CCOC(=O)c1cc(C#N)c(N2CCCC2)nc1-c1ccccc1 | inconclusive [inhibitor, single point] | – |
| COc1ccc(CCN(C)Cc2ccc(C(=O)Nc3ccccc3)cc2)cc1OC | inconclusive [inhibitor, single point] | – |
| Oc1ccc(O)c(/C(=N/Nc2ccccc2)c2ccccc2)c1 | inconclusive [inhibitor, partial curve, poor fit] | – |
| O=S(=O)(/C=C/c1ccccc1)N1CCN(c2ccccc2)CC1 | inactive | – |
| CCCCn1cc2c(c1-c1cccc(C)c1)c(=O)n(C)c(=O)n2C | inconclusive [inhibitor, partial curve] | – |
| Cc1nn(C)cc1C(=O)Nc1c(C)nn(Cc2ccccc2Cl)c1C | inactive | – |
| S=c1[nH]nc(COc2ccc(Cl)cc2)n1C1CCCCC1 | inconclusive [inhibitor, partial curve, poor fit] | – |
| CCCCN(C)CCNC(=O)c1ccc2c(c1)NC(=O)C(N1CCCCC1)S2 (centres undefined) | inconclusive [inhibitor, single point] | – |
| Cc1ccc(NC(=O)N(Cc2cccs2)Cc2cc3cc4c(cc3[nH]c2=O)OCO4)cc1 | inconclusive [inhibitor, single point] | – |
| O=C(COC(=O)C1CC(=O)N(Cc2ccccc2)C1)Nc1ccc(Cl)cc1F (centres undefined) | inactive | – |
| CCOc1ccc(NC(=O)CN(C)C(=O)Cc2sc(C)nc2-c2ccc(F)cc2)cc1OCC | inconclusive [inhibitor, full curve] | – |
| CC1CCCCN1C(=O)Cn1nnc(-c2cccnc2)n1 (centres undefined) | inconclusive [inhibitor, single point] | – |
| COc1ccc(C2NC(=O)NC(C)=C2C(=O)Nc2cccc(C)c2C)cc1 (centres undefined) | inactive | – |
| Cc1ccc(N2CCN(C(=O)c3ccccc3NC(=O)/C=C\C(=O)O)CC2)cc1 | inactive | – |
| COc1ccc(-c2nc(-n3c(C)c(C(C)=O)c(C(C)=O)c3C)sc2C)cc1 | inconclusive [inhibitor, single point] | – |
| COc1cc2c(cc1OC)C(c1cccs1)N(C(=O)c1ccc(S(=O)(=O)N(C)C)cc1)CC2 (centres undefined) | active: 10.4 µM | – |
| Cc1cc(N2CCCCC2C)nc(-c2ccccc2O)n1 (centres undefined) | inconclusive [inhibitor, single point] | – |
| Cc1ccc(C(=O)CC(=O)c2cc(Cl)ccc2O)cc1 | inconclusive [inhibitor, single point] | – |
| Cc1ccc(C(C)NC(=O)c2cc3cc(Br)ccc3oc2=N)cc1 (centres undefined) | inconclusive [inhibitor, single point] | – |
| Cc1ccc(C)c(COC(=O)c2cc([N+](=O)[O-])ccc2N2CCOCC2)c1 | inconclusive [inhibitor, single point] | – |
| COc1ccc2c(c1)sc(=N)n2C | inconclusive [inhibitor, full curve, poor fit] | – |

| Compound | Potency | activity change, negative = inhibition |
| --- | --- | --- |
| Cn1c(O)c(C=NCCN2CCOCC2)c(=O)n(C)c1=S | inconclusive [inhibitor, single point] | – |
| Cn1cnnc1Sc1ccc(CN2CCN(C3CCCC3)C(CCO)C2)o1 (centres undefined) | inconclusive [inhibitor, partial curve, poor fit] | – |
| Cn1nc(-c2ccc(C(=O)Nc3cccnc3)cc2)c2ccccc2c1=O | active: 6.57 µM | – |
| CCC(C)[C@H](NC(=O)[C@@H]1Cc2ccccc2CN1)C(=O)NCc1ccc(OC)cc1 (some centres undefined) | inactive | – |
| Fc1cccc(CNc2ncnc3ccc(-c4ccc5c(c4)OCO5)cc23)c1 | active: 4.15 µM | – |
| CCOC(=O)c1cnc(-n2nc(C)cc2C)nc1Nc1ccc(O)cc1 | inconclusive [inhibitor, full curve, poor fit] | – |
| c1ccc2nc3c(nc2c1)OCC1CCCCN31 (centres undefined) | – | inactive: -23.3% [at 0.00184 µM] |
| COc1ccc(C2CC(c3ccccc3)=NN2C(=O)COC(=O)c2cccc(S(=O)(=O)N(C)C)c2)cc1 (centres undefined) | inconclusive [inhibitor, single point] | – |
| CSc1cccc(Nc2ccc(S(=O)(=O)N3CCOCC3)cc2[N+](=O)[O-])c1 | inconclusive [inhibitor, partial curve, poor fit] | – |
| CCOC(=O)C(C)(C)N(Cc1cccc(C)c1)S(=O)(=O)c1cccc([N+](=O)[O-])c1 | inconclusive [inhibitor, single point] | – |
| COC(=O)C1CCN(Cc2ccc(OCCCN3CCN(c4ccc([N+](=O)[O-])cc4)CC3)cc2)CC1 | active: 2.33 µM | – |
| COc1cccc(C2CCN(CC(=O)Nc3cc(Cl)ccc3OC)CC2O)c1 (centres undefined) | inconclusive [inhibitor, partial curve, poor fit] | – |
| C=CCc1ccc(OCC(O)CN2CCc3ccccc3C2)c(OC)c1 (centres undefined) | inconclusive [inhibitor, single point] | – |
| CCOc1ccc(NC(=O)CN(C)C(=O)c2ccc(COc3ccccc3)cc2)cc1OCC | inconclusive [inhibitor, single point] | – |
| COc1ccc(/C=C/c2ccncc2)c2ccccc12 | inconclusive [inhibitor, single point] | – |
| Cc1nonc1NC(=O)CSc1nc2ccccc2o1 | active: 13.1 µM | – |
| O=C(Cc1cccs1)Nc1ccc(NC(=O)c2ccco2)cc1 | inactive | – |
| CN1CCN(S(=O)(=O)c2ccc(SCCOc3ccccc3)nc2)CC1 | inactive | – |
| CCc1nc(C#N)c(N2CCCCC2)o1 | inconclusive [inhibitor, single point] | – |
| CCn1cc(C(=O)NCc2ccc3c(c2)OCO3)c(=O)c2cc(S(=O)(=O)N3CCOCC3)ccc21 | inconclusive [inhibitor, full curve] | – |
| COc1ccc(Cn2c(-c3ccc(C)cc3)c[n+]3ccccc23)cc1 | active: 0.37 µM | – |
| O=C(CSc1ccc(Cl)cc1)Nc1cc(-c2nc3ncccc3o2)ccc1Cl | inconclusive [inhibitor, single point] | – |
| COc1ccc(NC(=O)CCCC(=O)OCC(=O)c2cccc(OC)c2)cc1 | inconclusive [inhibitor, partial curve, poor fit] | – |
